# Screen size: about 230,000 compounds; about 3,600 (1.6%) were called active. The shares of active, inactive and inconclusive entries below differ from those in the screen. Calls come from the whole dose curve; as a rule, active = well fitted inhibition curve with a large enough effect (not every such curve was filed as active); inconclusive = small, poorly fitted or top-dose-only effect, or another doubt; inactive = no such curve, though single readings can be large or run the other way. A potency beside an inconclusive call is a rough fit, not a confirmed value.
# Molecular target: Lysine-specific demethylase 4E (Homo sapiens) (UniProt B2RXH2)
# Experiment: qHTS Assay for Inhibitors of Human Jumonji Domain Containing 2E (JMJD2E)
# Settings: JMJD2E catalytic domain, FDH-coupled NADH fluorescence (FDH is formaldehyde dehydrogenase); series mostly up to 57.1 µM
# Note: nearly all actives have a fitted effect of over 50% in size.
# Potency is the fitted concentration of half-maximal effect; tags give direction and shape of the fitted curve.
# 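Throughout, for activity change, negative = inhibition: 0% = wells with enzyme and -100% = buffer wells without enzyme.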
# Chain of UniProt B2RXH2 (B2RXH2 whole entry, looked up, the tested form may be a part): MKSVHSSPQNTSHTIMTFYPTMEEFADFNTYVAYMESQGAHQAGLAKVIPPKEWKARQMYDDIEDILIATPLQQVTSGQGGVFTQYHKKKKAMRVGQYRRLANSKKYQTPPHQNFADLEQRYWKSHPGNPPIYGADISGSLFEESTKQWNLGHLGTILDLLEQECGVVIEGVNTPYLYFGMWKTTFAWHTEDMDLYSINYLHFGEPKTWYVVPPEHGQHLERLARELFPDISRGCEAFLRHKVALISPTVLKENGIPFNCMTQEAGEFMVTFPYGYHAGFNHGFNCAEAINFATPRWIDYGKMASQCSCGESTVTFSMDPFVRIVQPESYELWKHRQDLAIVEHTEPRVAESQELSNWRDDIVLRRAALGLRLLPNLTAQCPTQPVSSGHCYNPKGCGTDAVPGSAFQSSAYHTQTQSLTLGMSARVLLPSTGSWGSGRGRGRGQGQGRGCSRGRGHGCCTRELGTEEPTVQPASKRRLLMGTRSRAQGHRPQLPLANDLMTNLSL
Structure (SMILES),Potency,"activity change, negative = inhibition"
CNC1=C(Cl)C(=O)c2ccncc2C1=O,"inconclusive: 12.6 µM [inhibitor, partial curve]",
COc1ccc(/C=N/NC(=O)CCn2nnc3ccccc32)cc1,"inconclusive: 22.4 µM [inhibitor, partial curve]",
COc1ccccc1C(=O)N1CCN(C2CCN(Cc3ccccc3)CC2)CC1,"inconclusive: 39.8 µM [inhibitor, single point]",
COC(=O)C1=C(C(=O)OC)C(c2ccccc2O)c2sc(=O)[nH]c2S1 (stereo unspecified),"inconclusive: 35.5 µM [inhibitor, single point]",
O=C(Nc1ccc(Cl)c(Cl)c1)c1ccc(Cl)c(Cl)c1,inactive,
O=C(COc1ccc2c(C(F)(F)F)cc(=O)oc2c1)NCc1cccs1,"inconclusive: 25.1 µM [inhibitor, partial curve]",
Cc1ccc(C(C(=O)NCc2ccco2)N(CCc2ccccc2)C(=O)Cn2nnc3ccccc32)o1 (stereo unspecified),inactive,
COc1ccc(-c2cc(C(F)(F)F)nc(SCC(=O)Nc3sc4c(c3C#N)CCC4)n2)cc1,"inconclusive: 39.8 µM [inhibitor, single point]",
COC(=O)c1cccc(Oc2nc3c(c(=O)n(C)c(=O)n3C)n2C(C)C)c1,"inconclusive: 39.8 µM [inhibitor, single point]",
CN(C(=O)Nc1ccc(Cl)c(Cl)c1)c1ccccc1C(=O)O,"inconclusive: 28.2 µM [inhibitor, partial curve]",
COc1cccc(N2CC(O)=C(c3nc4ccccc4c(=O)[nH]3)C2=N)c1,"inconclusive: 31.6 µM [inhibitor, partial curve]",
Cc1ccc(C(=O)Nc2cccc(-c3nc4ncccc4o3)c2)cc1,"inconclusive: 35.5 µM [inhibitor, single point]",
COc1ccc(NC(=S)Nc2cc(C)[nH]n2)cc1Cl,inactive,
NC(=O)c1cccc(-c2cc(Nc3ccc(OC(F)(F)F)cc3)ncn2)c1,"inconclusive: 28.2 µM [inhibitor, single point]",
O=C(CSc1ncccc1-c1nc2ccccc2[nH]1)NC1CC1,"inconclusive: 39.8 µM [inhibitor, single point]",
COC(=O)c1[nH]c2cc(C)ccc2c1NC(=O)CN1CCN(C(=O)c2ccco2)CC1,"inconclusive: 28.2 µM [inhibitor, partial curve]",
COC/C=C/C1=CC2=CC(=O)C(C)(OC(=O)c3cnc4ccccc4n3)C(=O)C2=CN1CCOC (stereo unspecified),,inactive: -2.31% [at 11.4 µM]
c1ccc(Cn2c(SCc3cn4cccnc4n3)nnc2-c2ccco2)cc1,"inconclusive: 35.5 µM [inhibitor, partial curve]",
COc1ccc(C(=O)/C=C/N(C)C)cc1,inactive,
Cc1ccccc1-c1n[nH]c(=S)n1/N=C/C=C/c1ccco1,"inconclusive: 28.2 µM [inhibitor, single point]",
COc1cc(CN2CCC(C(=O)N3CCN(c4ccccc4F)CC3)CC2)cc(OC)c1OC,"inconclusive: 39.8 µM [inhibitor, single point]",
CC(=O)C1=C(c2ccc(Br)cc2)C(=O)c2ccccc2C1=O,"inconclusive: 0.447 µM [inhibitor, full curve]",
CCCc1cc2c(=O)c(-c3nc4ccccc4s3)c(COCC(=O)O)oc2cc1O,"inconclusive: 20 µM [inhibitor, partial curve]",

Structure (SMILES),Potency,"activity change, negative = inhibition"
O=C1CN(C(=O)COC(=O)COc2ccc3c(c2)CCC3)c2ccccc2N1,inactive,
CCCSc1nnc(CSc2ncccn2)n1C,"inconclusive: 35.5 µM [inhibitor, single point]",
N#Cc1c(Nc2ccc(F)cc2)sc(C(=O)c2ccc(F)cc2)c1N,inactive,
Cc1ccc(OCC(=O)NC2CC(C)(C)NC(C)(C)C2)c(C)c1,inactive,
CCN(Cc1cc(=O)n2cc(Cl)c(C)c(Cl)c2n1)Cc1nc2ccccc2c(=O)[nH]1,"inconclusive: 28.2 µM [inhibitor, single point]",
COc1cccc(Cn2nnc(C(=O)Nc3ccc(C)cc3)c2N)c1,"inconclusive: 25.1 µM [inhibitor, partial curve]",
Cc1ccccc1NS(=O)(=O)c1cc(C(=O)N2CCc3ccccc3C2)ccc1C,inactive,
Cc1nnc(NC2=NCCC2)o1,inactive,
N#CC1=C(N)SC(N)=C(C#N)C1CCC1CCCCC1,"inconclusive: 39.8 µM [inhibitor, single point]",
CC(C)OP(=O)(c1ccc(N(C)C)cc1)C(O)c1ccncc1 (stereo unspecified),"inconclusive: 28.2 µM [inhibitor, single point]",
CCOC(=O)C1CCCN(Cc2sccc2C)C1 (stereo unspecified),"inconclusive: 35.5 µM [inhibitor, single point]",
CCOc1cc(C)c(C(C)C)cc1S(=O)(=O)NCc1ccccn1,inactive,
Oc1ccccc1C1Nc2cccc3cccc(c23)N1,inactive,
CC(C)(C)NC(=O)C(c1ccc(O)cc1)N(C(=O)Cn1nnc(-c2ccc(F)cc2)n1)c1ccccc1F (stereo unspecified),inactive,
Clc1ccccc1Cn1nnc2c(N3CCOCC3)nc(C3CC3)nc21,"inconclusive: 39.8 µM [inhibitor, single point]",
Cc1ccc(O)c(N=Cc2ccc(C)s2)c1,"inconclusive: 11.2 µM [inhibitor, partial curve]",
Cc1ccc(CNC(=O)c2cc3c(=O)n(C)c4ccccc4c3n2C)o1,"inconclusive: 39.8 µM [inhibitor, single point]",
O=C(Nc1ccccc1N1CCCC1)c1ccc(Br)o1,inactive,
Cc1ccc2cc(C#N)c(N3CCCN(C(=O)C4CCCO4)CC3)nc2c1 (stereo unspecified),"inconclusive: 28.2 µM [inhibitor, partial curve]",
COc1ccccc1CNCC(=O)Nc1ccc(N2CCOCC2)cc1,"inconclusive: 31.6 µM [inhibitor, single point]",
NC(=O)NCCCC(NC(=O)c1ccc(C#CC2(O)CCCCC2)cc1)C(=O)O (stereo unspecified),inactive,
COCc1cc(C)n(CC(=O)Nc2cc(C)cc(C)c2)c(=O)c1C#N,"inconclusive: 28.2 µM [inhibitor, partial curve]",
CCOc1ccc(/C(O)=C2/C(=O)C(=O)N(CC3CCCO3)C2c2ccco2)cc1 (stereo unspecified),inactive,
